# Measured values as given in the BET-seq Pho4 binding data (Le et al. 2018).
# The list shows a part of the results. The energies were worked out here from pooled read counts, against the library average; single values are noisy.
# Molecular target: T1, Pho4 (S. cerevisiae) (UniProt P07270)
# T1 sequence: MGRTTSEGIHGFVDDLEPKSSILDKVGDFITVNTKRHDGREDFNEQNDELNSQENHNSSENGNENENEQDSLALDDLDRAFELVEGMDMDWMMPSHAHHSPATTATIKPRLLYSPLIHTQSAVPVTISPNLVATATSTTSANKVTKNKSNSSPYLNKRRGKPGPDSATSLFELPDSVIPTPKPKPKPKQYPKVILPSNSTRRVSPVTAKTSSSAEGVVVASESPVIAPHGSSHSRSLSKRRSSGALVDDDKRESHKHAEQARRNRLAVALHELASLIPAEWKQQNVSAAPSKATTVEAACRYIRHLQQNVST
# Assay: relative binding free energy (BET-seq); higher = weaker binding
# Conditions: reference: library average
row,Sequence,relative binding free energy [kJ/mol]
1,CGGTTCACGTGGAGTG,1.34
2,GATTGCACGTGGGCAG,-1.13
3,TCGAACACGTGGGCGG,-0.0837
4,GGGTCCACGTGTGAGG,0.711
5,GCGTGCACGTGGTAAG,-0.126
6,ATGAACACGTGGGTGA,-0.753
7,GTTTGCACGTGAGTAG,1.17
8,ATTAGCACGTGTTATG,-0.0418
9,GCTGCCACGTGGTGTG,-0.669
10,TGGATCACGTGATATA,1.51
11,TTTATCACGTGGCGCA,0.837
12,TAGGGCACGTGTAGGC,-0.0837
13,TTACGCACGTGGGGAG,-1.51
14,TATTTCACGTGTGACG,1.26
15,GGCCGCACGTGGTGTT,-0.879
16,GGTGACACGTGGGCCT,-0.335
17,TATTTCACGTGTGGCC,1
18,CAGAGCACGTGAGTTT,1.05
19,CGTTGCACGTGTCGTG,0
20,TAGATCACGTGTTTGG,0.586
21,CGGTGCACGTGAGGGT,0.962
22,GGAGTCACGTGTATTC,1.21
23,GTAAACACGTGGGTGT,-0.502
24,GGTGGCACGTGCGTCG,-0.711
25,GCTTTCACGTGGAGGG,1.13
26,AGGTACACGTGTGCGA,0.502

row,Sequence,relative binding free energy [kJ/mol]
1,TTCGTCACGTGGATGA,0.335
2,TATCACACGTGGGGCG,-0.293
3,AGTTTCACGTGGTTTG,1.09
4,ATGGACACGTGGTAGT,0.46
5,AAGATCACGTGTGTGA,0.167
6,TGGGACACGTGAGGTA,0.544
7,CGCGTCACGTGGGGCT,-0.251
8,AGGAGCACGTGTTTGA,-0.251
9,TGGGGCACGTGTAGTT,0.209
10,GTTATCACGTGGCTGA,0.669
11,GGTTGCACGTGTTCGA,0.251
12,GTTGCCACGTGAGAGT,0.0418
13,CAGGTCACGTGGTTCG,0.377
14,ATGTTCACGTGTTCTG,1.17
15,GGTGTCACGTGGAAAC,1.3
16,ATATTCACGTGGGCTT,0.335
17,ATTCGCACGTGTTCTG,0.335
18,GTTGACACGTGATTTA,0.586
19,ATTGACACGTGCTGGT,-0.251
20,ATGTACACGTGAGCTG,0.962
21,GTTTTCACGTGGGTAC,1.46
22,GCAGGCACGTGGTTAG,-1.13
23,AGATTCACGTGGTAGG,1
24,AGAAGCACGTGGTGTG,-0.418
25,GATGACACGTGTGAGA,0.753
26,TTCAGCACGTGGTTTA,-0.502

row,Sequence,relative binding free energy [kJ/mol]
1,CGAGTCACGTGATTAT,1.21
2,TCAGGCACGTGAAGGT,0.711
3,ATATTCACGTGTGGGG,0.879
4,GTTGACACGTGTCGTG,-0.126
5,TAATTCACGTGTTTGA,0.544
6,TGGCGCACGTGTACGG,-0.753
7,TTATTCACGTGTTTTG,1.09
8,GCGTGCACGTGGCTTT,-0.126
9,TCGGTCACGTGGGTAA,0.377
10,TGGGACACGTGGTCGG,-0.335
11,TGGTTCACGTGGATAT,0.669
12,TTGGTCACGTGGACCG,0.502
13,AGGGCCACGTGTGGGT,0.167
14,ACGTACACGTGGTGAG,0.418
15,AGACACACGTGTGGGT,0.669
16,TCTTACACGTGTAGTG,0.377
17,GAACGCACGTGTTTTG,0.251
18,AGAGGCACGTGCGGTG,-0.418
19,TAGTACACGTGATGGG,0.544
20,CTGGGCACGTGCTTGG,-0.293
21,TTTGTCACGTGGAGGT,0.502
22,TCAAGCACGTGGGGGC,-0.795
23,ATGGGCACGTGCGTCG,-1.17
24,GGTGCCACGTGGTATA,-0.544
25,GCTTGCACGTGTAAGT,0.544
26,CGAGGCACGTGGTGCT,-1.05

row,Sequence,relative binding free energy [kJ/mol]
1,TGACTCACGTGCGGGT,0.795
2,CGTGGCACGTGCGGGG,-0.46
3,TATGTCACGTGCGTAA,0.126
4,GTTAACACGTGGTCGG,0.126
5,GGAGTCACGTGCTTGG,1
6,TGGGTCACGTGTCTCG,0.711
7,ATTCGCACGTGTTATG,-0.586
8,ACTGGCACGTGATTTG,0.167
9,AGGGGCACGTGAGCAG,0.46
10,TGGATCACGTGGCGGT,0.167
11,TGTTCCACGTGAGAGG,0.377
12,TGCGTCACGTGAGGGG,1.3
13,GTCTTCACGTGAGTGT,1.59
14,GTGTACACGTGACGGA,0.753
15,GGGTACACGTGGTGGA,-0.0418
16,TGTTGCACGTGTGTTA,0.0837
17,TCAGGCACGTGGGACT,-0.377
18,TTTAGCACGTGGTATC,-0.377
19,GGCATCACGTGATGTG,0.669
20,TCGTCCACGTGGTTGG,0
21,GCTTGCACGTGCTGGG,0.293
22,GCGGTCACGTGGTGAT,0.167
23,TTTAGCACGTGGTTAG,-0.502
24,TAGTTCACGTGTTTTC,0.962
25,ATCTTCACGTGGGGGG,1.38
26,TATGCCACGTGTTTAT,-0.293

row,Sequence,relative binding free energy [kJ/mol]
1,TGGTGCACGTGGGGTG,-0.418
2,AGCGGCACGTGATAGT,-0.0418
3,TCGGACACGTGTATGT,0.586
4,CAATGCACGTGGTAGG,-0.251
5,GTGGACACGTGGAAAG,1.17
6,GTGGTCACGTGTTTTG,1.05
7,GTGGACACGTGCGAGT,-0.502
8,GTATACACGTGGACGG,0.377
9,TGTGACACGTGGACTG,-0.293
10,AGTTCCACGTGGGCGT,-0.46
11,AGCTACACGTGGGTGG,-0.753
12,TGTGTCACGTGCCGTT,0.586
13,GTTGTCACGTGCATGT,0.795
14,TGATGCACGTGGCATT,-0.335
15,TTTGGCACGTGCTATT,-0.544
16,GTTTGCACGTGGATAT,-0.0418
17,GTCAGCACGTGGGTGG,-0.795
18,GTGAGCACGTGCTGGT,-0.126
19,TATAACACGTGGTAGG,-0.209
20,TTATACACGTGTCGTA,0.377
21,TGCGACACGTGATGGT,0.711
22,AGTGTCACGTGGGCGG,-0.502
23,TGGCTCACGTGTGTCT,0.669
24,AAGGGCACGTGAGGCA,0.126
25,TGTAACACGTGTGGTA,-0.167
26,AAAGTCACGTGATTAT,0.753

row,Sequence,relative binding free energy [kJ/mol]
1,ATAATCACGTGGAAGG,0.502
2,GGTGTCACGTGCGGGG,0.544
3,GGTTTCACGTGATTGT,1.67
4,TTGGGCACGTGACATT,-0.167
5,CTTTACACGTGTAGTG,0.46
6,TTGCACACGTGTAATG,0.711
7,GTTCGCACGTGTTATG,0.0837
8,TCGTACACGTGGTATT,-0.502
9,GCTAACACGTGTTTGT,0.251
10,TGTTGCACGTGAGATG,1.13
11,CGTTGCACGTGGTAAG,0.126
12,TATATCACGTGGGTGC,0.293
13,TCTATCACGTGCGTGG,0.544
14,TACGGCACGTGATAGG,0.0418
15,TGTTACACGTGGGTAT,0
16,TAGGTCACGTGTTGTT,0.795
17,TTAGCCACGTGTATTG,0.0418
18,TGTTACACGTGGATCA,0.962
19,CATGGCACGTGTGTGA,-0.0837
20,TGATGCACGTGGTACG,-0.586
21,TGGTGCACGTGAGAGT,1.13
22,GGGGACACGTGCCGGG,-0.209
23,GATATCACGTGGCGCG,1.17
24,TATGACACGTGATGTT,0.669
25,GTCAGCACGTGAGTGT,0.753
26,CGATGCACGTGTGGCT,-0.0837

row,Sequence,relative binding free energy [kJ/mol]
1,TGTATCACGTGGAATT,0.711
2,GGAGACACGTGATAGG,0.126
3,TAGGACACGTGGCGTT,0.0837
4,TCATGCACGTGAGAGT,1.42
5,GTATTCACGTGTATGA,0.544
6,CTGGGCACGTGTGCAA,-0.251
7,TATAGCACGTGGTAGT,-0.753
8,ATTTACACGTGGAGAA,1.72
9,GTCATCACGTGGTGGT,0.209
10,TTGTTCACGTGTTCGG,0.92
11,GGGACCACGTGTTGGT,0.126
12,GTTCGCACGTGAGGGG,0.962
13,TGATACACGTGGGTCT,-0.335
14,TATAACACGTGGCTGG,-0.251
15,ACGGGCACGTGGTGTT,-0.669
16,AGGGGCACGTGCCTTG,-1.21
17,TATTGCACGTGAGATA,1.13
18,GTATTCACGTGCGTTA,0.879
19,CGTTTCACGTGTCGTG,0.92
20,GCATTCACGTGAATGT,1.34
21,GGTAACACGTGATGCG,0.586
22,TTTGACACGTGGGTAA,-0.628
23,TGGGGCACGTGCTGAA,-0.544
24,GGTGCCACGTGGTCTG,-1
25,AACAACACGTGGTGGG,-0.126
26,GGAAGCACGTGTACGG,-0.251

row,Sequence,relative binding free energy [kJ/mol]
1,GATGTCACGTGTTCGT,0.46
2,TTACGCACGTGTGGCG,0.251
3,ATAAACACGTGTGTGC,0
4,TGGACCACGTGAGGTG,0
5,TAGAGCACGTGGGGCT,-1.42
6,TTATGCACGTGTAGGT,0.167
7,AGGGACACGTGGGTGT,-0.544
8,CTAATCACGTGTGGGA,0.628
9,ATGTTCACGTGTTCGG,1.26
10,TCTGTCACGTGGTGTA,0.126
11,TCAGACACGTGGGGGA,-0.251
12,TGAGTCACGTGTTCGT,0.669
13,CTCGGCACGTGTGTTA,-0.0837
14,GTTTTCACGTGTTAAT,1.09
15,TCATTCACGTGTAGGT,0.544
16,TTTTCCACGTGCGGTG,0.209
17,GCGAGCACGTGGTGTG,-0.92
18,AGTGGCACGTGATGCT,-0.795
19,GGTGGCACGTGTTTAG,-0.335
20,GTTAACACGTGTTTAT,-0.126
21,TTAGGCACGTGCCGGT,-0.879
22,TGTAACACGTGGTTTT,-0.0418
23,TTCGCCACGTGGTTTG,-0.669
24,GGCTCCACGTGGGGGT,-0.586
25,ACGGACACGTGTGATT,1.42
26,AACATCACGTGGGGCG,0.335

row,Sequence,relative binding free energy [kJ/mol]
1,CGTGGCACGTGTATGT,-0.837
2,TGATCCACGTGGTTAT,-0.251
3,CTGGACACGTGCAGGG,-0.0418
4,ATTTTCACGTGAGTCG,2.13
5,GGGGGCACGTGTTCAC,-0.377
6,GTGTGCACGTGGGGGA,-0.502
7,TTCTACACGTGAGGAT,1.51
8,ATAAGCACGTGGGCGG,-1
9,AGGTACACGTGAAGCG,1.34
10,TCTGGCACGTGATGTA,-0.0418
11,TGCATCACGTGTCGGT,0.377
12,GTGCACACGTGGGTTA,0.126
13,AGGCACACGTGGGCGG,-0.92
14,AGGAGCACGTGAGGAT,0.502
15,TCAATCACGTGTATTG,0.418
16,GACGCCACGTGTTGTT,0.167
17,GAGGACACGTGGGTGC,-0.293
18,TACTGCACGTGGGTGT,-0.795
19,TTTGACACGTGCGTTT,-0.293
20,GGGCCCACGTGGCGGG,-0.962
21,TGACGCACGTGTTTTG,-0.544
22,TGTTACACGTGTCGGG,0.0837
